Measured values as given in ChEMBL document CHEMBL4888484, “Replenishing the malaria drug discovery pipeline: Screening and hit evaluation of the MMV Hit Generation Library 1 (HGL1) against asexual blood stage Plasmodium falciparum ,using a nano luciferase reporter read-out” (2022).
Among all 150,000 compounds or so, about 540 (0.36%) showed an effect of 50% or more. This is one part of the list.

Tested on: Plasmodium falciparum
Assay: Primary screen in NF54 nanoGlo assay, in single point, at 2uM, 72h; a lower Z score goes with more inhibition
Assay type: functional, Erythrocyte
Conditions: timepoint 72 hour

| SMILES | % Inhibition | Z score |
| --- | --- | --- |
| COCC1(NC(=O)c2nccnc2C(=O)N2CCCCC2)CCCC1 | -5% | 0.95 |
| C[C@@H](CN1CCCCCC1)NCc1ccc2nonc2c1 | -15% | 1.43 |
| Cc1nc(NC(=O)Cc2cccs2)sc1C | -5% | 0.71 |
| Cc1ccc(Cc2nsc(N3CCC(CNC(=O)Nc4ccc(Cl)c(Cl)c4)CC3)n2)cc1 | -5% | 0.53 |
| CN(C(=O)C1(O)CCC1)c1ccc(F)cc1 | -8% | 1.38 |
| CC(C)c1nccn1-c1nccc(N(C)C)n1 | 1% | -0.09 |
| CC(C)(C)c1nccc(Oc2ccc(-n3cncn3)cc2)n1 | -2% | 0.21 |
| CCCc1nc(-c2cc3cc(C)ccc3nc2NCc2ccc(C)o2)no1 | -9% | 1.85 |
| c1ccn2cc(CN3CCCC[C@@H]3Cn3cncn3)nc2c1 | 10% | -1.3 |
| Cc1ccoc1C(=O)NC1CCN(C(=O)[C@H](C)N2CCOCC2)CC1 | 0% | -0.05 |
| O=C(c1ccc[nH]1)N1CCCN(C(=O)C2C3CCCCC32)CC1 (stereo not drawn) | -8% | 0.78 |
| CCNC(=O)COc1ccc2c(c1)[C@H](c1ccc(C)cc1)N(C(=O)C1CCCC1)CC2 | -9% | 0.98 |
| Cc1ccc(C2=C[C@@H](c3c(F)cccc3Cl)n3nc(NC(=O)c4ccccc4)nc3N2)cc1 | 18% | -3.01 |
| COc1cccc(C2C(c3ccccc3)CCN2C(=O)c2ocnc2C(F)F)c1 (stereo not drawn) | -9% | 1.81 |
| C[C@@H]1CN(c2ncc(F)cn2)C[C@H](C)N1CCO | -11% | 1.54 |
| CC(C)(C)OCc1cc(C(=O)N2CC(=O)Nc3c(F)cccc32)no1 | 3% | -0.5 |
| COc1ccc(S(=O)(=O)Nc2nc(C)c(C(=O)NCc3cccs3)s2)cc1 | 2% | -0.25 |
| NC(=O)c1c(F)cccc1-c1cccc(-c2cc[nH]n2)c1 | 2% | -0.31 |
| CCc1cc(C(=O)N(CCc2ccccc2)CC2CCN(C)CC2)cc(=O)[nH]1 | -1% | 0.2 |
| c1coc(C(CNC2CC3CCC2O3)N2CCCC2)c1 (stereo not drawn) | 11% | -1.41 |
| Cc1ccc(-c2ncccc2NC(=O)N2CC[S@@+]([O-])C(C)(C)CC2)s1 | -1% | 0.12 |
| O=C(Nc1ccccc1)Nn1cnc2ccccc2c1=O | -10% | 1.49 |
| O=C(Cc1cccs1)N1CCC(c2c[nH]c3ccccc23)CC1 | -7% | 1.13 |
| CCOC1CC(CC(=O)NCc2ccnc(C)n2)C1 (stereo not drawn) | 7% | -0.71 |
